Laboratory results from the supplement of paper PMC4723716.
The full ranking holds about 3,600 compounds; the median of “viability index relative to DMSO control” is about 0.81, and the lowest 2% start at about 0.13. Some of the results follow.

The compounds below were run on Plasmodium falciparum NF54 stage V gametocytes (assay: viability index relative to DMSO control (fraction); higher = less gametocyte killing). Details: 1.25 µM, incubation time: 72 h.
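Further: 384-well serum-free SaLSSA: MitoTracker Red CMXRos staining with saponin lysis, high-content imaging, treated-well particle count divided by plate-mean count of DMSO wells.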

| SMILES | viability index |
| --- | --- |
| O=C(NNC(=O)c1csnn1)c1ccc(Cl)cc1 | 0.673 |
| CC(=O)N(C1=C(N2CCCCC2)C(=O)c2ccccc2C1=O)c1ccc(F)cc1 | 0.721 |
| CCOC(=O)C1=C(C)NC2=C(C(=O)C(C(=O)OCC)C(c3ccc(OC)cc3)C2)C1c1ccc(OC)c(OC)c1 (centres undefined) | 0.683 |
| Cc1ccc2c(c1)N(C)C(=Cc1cccc[n+]1C)S2 | 1.26 |
| CCOC(=O)c1nnn(-c2nonc2N)c1-c1ccc(Cl)cc1 | 0.764 |
| Cc1ccc2[nH]c3c(NCCN(C)C)ncnc3c2c1 | 0.83 |
| O=C(CCn1c(=S)oc2ccccc21)N1CCN(c2ccccc2)CC1 | 1.45 |
| C=Cc1cc2ccccc2c2cc3c(cc12)C[N+](C)(C)C3 | 1.11 |
| COc1ccc(C2CC(=O)C3=C(C2)NC(C)=C(C(=O)OC2CCCCC2)C3c2cccc(C)c2)cc1OC (centres undefined) | 0.873 |
| Cc1ccc(-c2nn(CC(=O)Nc3ccc(OC(F)(F)F)cc3)c(=O)c3ccccc23)cc1S(=O)(=O)N1CCCCC1 | 1.1 |
| Fc1cc(F)c(C2SCCN2C(=S)Nc2cccc(C(F)(F)F)c2)c(F)c1 (centres undefined) | 0.526 |
| Clc1cccc(CSc2nc(Nc3ccc4c(c3)OCO4)c3ccccc3n2)c1 | 0.813 |
| CCOc1ccc(NC(=O)c2ccc(F)c(S(=O)(=O)NC3CCCC(C)C3C)c2)cc1 (centres undefined) | 0.801 |
| CN1C(=Cc2cccc[n+]2C)Sc2ccccc21 | 1.07 |
| COc1ccc(-c2cc(=O)c3c(O)cc(OC4OC(COC5OC(C)C(O)C(O)C5O)C(O)C(O)C4O)cc3o2)cc1 (centres undefined) | 0.931 |
| O=C(C=Cc1cccnc1)C12CC3CC(CC(C3)C1)C2 | 0.552 |
| CN1CCN(Cc2c(O)ccc3c(=O)c(Oc4ccc(C(C)(C)C)cc4)c(C(F)(F)F)oc23)CC1 | 0.475 |
| Cc1n(C)c2ccccc2[n+]1CC(=O)c1ccccc1 | 0.785 |
| CCOC(=O)C1=C(C)NC2=C(C(=O)CC(c3ccc(OC)c(OC)c3)C2)C1c1c(F)cccc1Cl (centres undefined) | 0.484 |
| COc1ccccc1C(=O)ON=C(N)Cc1cccc2ccccc12 | 0.731 |

| SMILES | viability index |
| --- | --- |
| CC(=O)Nc1ccccc1OC(F)(F)F | 1.41 |
| CC(C)(C)C1=NN(CC(=O)Nc2ccc3c(c2)OCO3)C(=O)c2cc3ccccc3n2C1 | 0.631 |
| Cc1ccc2[nH]c3c(NCCc4ccccc4F)ncnc3c2c1 | 0.731 |
| CCC1=NN2C(=N)/C(=C/c3cn(CCOc4cccc(C)c4)c4ccccc34)C(=O)N=C2S1 | 0.936 |
| O=C(c1ccncc1)N1CCN(Cc2ccc3c(c2)OCO3)CC1 | 1.23 |
| Cc1cc(N2CCCC2)nc2ccc(NC(=S)NCCCN3CCN(Cc4ccccc4)CC3)cc12 | 1.06 |
| Cc1cc(C)c(C(Nc2ccccn2)c2ccc3cccnc3c2O)c(C)c1 (centres undefined) | 0.896 |
| Cc1cc(C)cc(OCC(=O)N2N=C(C(C)C)CC2(O)C(F)(F)F)c1 (centres undefined) | 0.799 |
| CCCN1CCC(N2C[C@@H](NCCC3=C(C)CCCC3(C)C)C[C@H]2C(=O)NCC)CC1 | 0.74 |
| CCCN1CCc2c(sc3nc(SCC(=O)c4ccccc4)nc(N)c23)C1 | 1.22 |
| CCc1ccc(NC(=O)CSc2nc(C)cc(C)c2C#N)cc1 | 0.993 |
| O=C1CC(c2nc3ccccc3n2CCCOc2ccccc2)CN1c1ccc(F)cc1 (centres undefined) | 0.888 |
| COc1cc2c(cc1C=C(C#N)c1cccc(C)c1)OCO2 | 0.71 |
| CN(C)c1ccc(C=C2SC(=Nc3ccc(O)cc3)NC2=O)cc1 | 0.727 |
| O=c1cc[nH]c2cc(N3CCCCCC3)c(F)cc12 | 0.755 |
| OC1=C2C(=Nc3ccccc3SC2c2cccs2)c2ccccc21 (centres undefined) | 0.888 |
| CCOC(=O)C1=C(C)NC2=C(C(=O)CC(c3ccc(OC)cc3)C2)C1c1cccs1 (centres undefined) | 1.12 |
| COc1cc(C(=O)NC2CC3CCC(C2)N3C2CC2)cc(OC)c1OC (centres undefined) | 0.837 |
| Cc1cc(Nc2cccc(C(F)(F)F)c2)nc(N)n1 | 0.804 |
| CCCCCc1ccc(OCCOCC[n+]2ccccc2)c(CCCCC)c1 | 0.713 |

| SMILES | viability index |
| --- | --- |
| CC(C)(C)c1csc(NC(=O)c2ccc(S(=O)(=O)N3CCCCC3)cc2)n1 | 0.57 |
| Cc1cccc(C)c1-n1c(SCc2cccc(F)c2)nc2c(sc(=S)n2-c2c(C)cccc2C)c1=O | 0.843 |
| CC(C)CN1C(=O)c2ccccc2C(C(=O)Nc2ccc(F)c(Cl)c2)C1c1cccs1 (centres undefined) | 0.237 |
| Nc1cc(-c2cccs2)n[nH]1 | 1.23 |
| Cc1ccccc1-c1cnnc(NCC2CCCCO2)n1 (centres undefined) | 0.933 |
| CCC(CO)NCC(O)Cn1c2ccc(Cl)cc2c2cc(Cl)ccc21 (centres undefined) | 0.322 |
| O=C(COC(=O)c1c2c(nc3ccccc13)CCCCCCCCCC2)c1ccc(Cl)cc1 | 0.933 |
| CCOC(=O)C1CCN(C(c2cc3cc(OC)c(OC)cc3[nH]c2=O)c2nnnn2C(C)(C)C)CC1 (centres undefined) | 0.778 |
| Cc1cccc(C(=O)NCc2n[nH]c(=S)n2-c2cccc(C(F)(F)F)c2)c1 | 0.811 |
| CC(=O)N(Cc1ccc2c(c1)OCO2)C1CC(=O)N(c2ccccc2)C1=O (centres undefined) | 0.9 |
| CCCN(CCC)S(=O)(=O)c1cc(Br)cc2c1N(C(=O)C1CC1)CC2 | 0.972 |
| FC(F)(F)c1cccc(CNC2CCN(CCc3ccccc3)CC2)c1 | 1.01 |
| COc1cccc(CC2(CO)CCCN(Cc3sc(N4CCCC4)nc3Cl)C2)c1 (centres undefined) | 1.12 |
| CC(=O)Nc1ccc(-c2nc3c4ccccc4c4ccc(I)cc4c3[nH]2)cc1 | 0.762 |
| CCOc1cc(C2CC(=O)NC3=C2C(=O)CC(c2ccc(OC)c(OC)c2)C3)ccc1O (centres undefined) | 0.574 |
| CCOc1ccc(N(CC)S(=O)(=O)c2cc(Br)cc3c2N(C(C)=O)CC3)cc1 | 0.69 |
| OC(CNCc1ccco1)Cn1c2ccc(Cl)cc2c2cc(Cl)ccc21 (centres undefined) | 0.698 |
| O=C(NCCC1=CCCCC1)c1ccc2c(=O)n(-c3ccccc3)c(SCc3nc4ccccc4[nH]3)nc2c1 | 0.477 |
| CCOC(=O)c1cc(-c2ccc(OC)cc2)n(CCC(=O)Nc2cccc(C(C)=O)c2)c1C | 0.992 |
